These results are taken from article PMC11626941, “FBLN7 mediates vascular smooth muscle cell phenotype switching and vascular remodeling in hypertension” (Theranostics, 2024).

These are yes or no findings as the source states them, for the method shown. For some of these results: In cells and extracts the contact can be indirect. Some entries that bind do so weakly or less than the wild type. For some of these results: Sequences can lack the tags named with a protein.

In experiment [1] the target is T1, Flag-tagged full-length mouse SDC4 (mouse) (UniProt O35988).
T1 sequence: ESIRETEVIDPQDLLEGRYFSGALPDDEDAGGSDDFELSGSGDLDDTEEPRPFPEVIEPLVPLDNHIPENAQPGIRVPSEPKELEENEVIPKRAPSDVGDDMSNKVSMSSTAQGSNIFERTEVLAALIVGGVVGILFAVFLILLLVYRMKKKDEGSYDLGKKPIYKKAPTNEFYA
Briefly: co-IP; HEK293T co-transfected with tagged FBLN7 and SDC4 plasmids (full length or truncations), lysed after 24 hours; antibody overnight at 4 °C, protein A/G magnetic beads, washed with 0.5% Tween-20 in PBS, western blot.

The target of experiment [2] is T2, Myc-tagged full-length mouse FBLN7 (mouse) (UniProt Q501P1).
T2 sequence: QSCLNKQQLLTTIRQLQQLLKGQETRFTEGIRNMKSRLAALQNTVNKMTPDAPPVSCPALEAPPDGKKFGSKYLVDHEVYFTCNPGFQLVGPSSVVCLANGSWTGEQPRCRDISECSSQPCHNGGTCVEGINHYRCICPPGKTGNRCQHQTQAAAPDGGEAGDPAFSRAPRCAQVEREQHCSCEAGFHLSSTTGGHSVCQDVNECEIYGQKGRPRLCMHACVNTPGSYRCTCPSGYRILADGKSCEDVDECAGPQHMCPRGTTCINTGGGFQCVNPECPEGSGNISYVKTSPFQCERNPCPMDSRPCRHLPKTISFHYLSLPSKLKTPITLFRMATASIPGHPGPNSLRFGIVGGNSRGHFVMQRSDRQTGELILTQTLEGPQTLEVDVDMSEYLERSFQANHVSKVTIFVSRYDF
The description is as above.

Experiment [3] has as its target T1, Flag-tagged full-length mouse SDC4 (mouse). Briefly: co-IP; HEK293T co-transfected with increasing amounts of FBLN7 plasmids and a fixed amount of SDC4; dimeric form of SDC4 read on the blot.
Experiment [4] addresses T3, FBLN7 in VSMCs (co-immunoprecipitation of Figure S6A) (UniProt Q501P1).
T3 sequence: T2 sequence
Briefly: co-IP; VSMC lysate; antibodies overnight at 4 °C, protein A/G magnetic beads, western blot (Figure S6A).

In experiment [5] the target is syndecan-4 (SDC4), endogenous in VSMCs (mouse (endogenous in MASMCs)) (UniProt O35988). Briefly: immunoblot with non-reducing loading buffer; VSMCs overexpressing FBLN7; SDC4 dimers read on the blot (Figure S6B).

B1: FBLN7-delete-139-440aa (Myc-tagged, FBLN7-C region deleted) (domain or fragment, UniProt Q501P1)
chain: QSCLNKQQLLTTIRQLQQLLKGQETRFTEGIRNMKSRLAALQNTVNKMTPDAPPVSCPALEAPPDGKKFGSKYLVDHEVYFTCNPGFQLVGPSSVVCLANGSWTGEQPRCRDIS
With B1, the binding result in experiment [1] is reported as “no binding”.

B2: FBLN7-delete-79-136aa (Myc-tagged, sushi domain deleted) (domain or fragment, UniProt Q501P1)
chain: QSCLNKQQLLTTIRQLQQLLKGQETRFTEGIRNMKSRLAALQNTVNKMTPDAPPISECSSQPCHNGGTCVEGINHYRCICPPGKTGNRCQHQTQAAAPDGGEAGDPAFSRAPRCAQVEREQHCSCEAGFHLSSTTGGHSVCQDVNECEIYGQKGRPRLCMHACVNTPGSYRCTCPSGYRILADGKSCEDVDECAGPQHMCPRGTTCINTGGGFQCVNPECPEGSGNISYVKTSPFQCERNPCPMDSRPCRHLPKTISFHYLSLPSKLKTPITLFRMATASIPGHPGPNSLRFGIVGGNSRGHFVMQRSDRQTGELILTQTLEGPQTLEVDVDMSEYLERSFQANHVSKVTIFVSRYDF
With B2, the binding entry in experiment [1] is “binds”.

B3: Myc-tagged full-length mouse FBLN7 (protein, UniProt Q501P1 25-440)
chain: T2 sequence
For the molecule B3, in experiment [1], the binding entry is reported as “binds”.

B4: Flag-tagged full-length mouse SDC4 (receptor, UniProt O35988 24-198, looked up)
chain: T1 sequence
notes: Plasmids provided by GenePharma; Seen as monomer, dimer and tetramer bands on non-reducing blots; also called Flag-SDC4; Flag (SDC4); source: HEK293T, transfected (pcDNA 3.1), in lysate; not shown: Flag, C-terminal, kept
As for B4, the binding entry in experiment [2] and in experiment [3] was “binds” each time.

B5: syndecan-4 (SDC4), endogenous in VSMCs (receptor, UniProt O35988 24-198)
chain: T1 sequence
On to B5, for which the binding result in experiment [4] and in experiment [5] was “binds” throughout.
